The values below come from the supplement of paper PMC4723716.

± gives the uncertainty stated by the source. In all, about 9,900 compounds were measured (“viability index relative to DMSO control”: median about 1, lowest 2% from about 0.85 on). The list shows a part of the results.

The test system of the test is Plasmodium falciparum NF54 stage V gametocytes. In words: viability index relative to DMSO control (fraction); higher = less gametocyte killing. To be noted: 2.5 µM, library set: Broad Institute DOS, incubation time: 72 h. In outline:
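Compound at 2.5 µM was incubated for 72 hr at 37°C under low oxygen with P. falciparum NF54 stage V gametocytes (0.75% gametocytemia, 1.25% hematocrit, 10 µl, serum-free screening medium) in 1,536-well plates. Staining used 3 µl of 2.5 µM MitoTracker Red CMXRos plus 0.13% saponin for one to two hours, and red particles of 20–70 µm2 were counted in one imaged field per well. Each viability index is that count relative to the plate mean of solvent-only wells.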
In the case of `O=C(C[C@@H]1C[C@@H]2c3cc(NC(=O)C4CCC4)ccc3O[C@@H]2[C@H](CO)O1)NC1CCCC1`, the viability index came out at 1.03 ± 0.051.
The same measure for `N#Cc1cccc(-c2ccc([C@H]3[C@@H]4CN(C(=O)Nc5ccc(C(F)(F)F)cc5)C[C@H]3N4)cc2)c1`: 0.985 ± 0.12.
The same measure for `CC(C)NC(=O)Nc1ccc2c(c1)C(=O)N([C@@H](C)CO)C[C@@H](C)[C@@H](CN(C)C(=O)C1CCCCC1)OCCCC[C@H](C)O2`: 1.1 ± 0.11; for `CC(C)NC(=O)N(C)C[C@@H]1Oc2ccc(NC(=O)Cc3ccccc3)cc2CC(=O)N([C@H](C)CO)C[C@@H]1C`: 0.981 ± 0.031; for `COc1ccccc1-c1ccc([C@H]2[C@H]3CN(C(=O)c4cccnc4)CCCCN3[C@H]2CO)cc1`: 1.02 ± 0.058.
The same measure for `C[C@@H]1CN([C@@H](C)CO)C(=O)c2cc(C#Cc3ccccc3)cnc2O[C@@H]1CN(C)C(=O)c1ccccc1`: 1.08 ± 0.028; for `COc1ccccc1NC(=O)N[C@@H]1CC[C@H](CCNS(=O)(=O)c2ccc(Cl)cc2)O[C@H]1CO`: 1.05 ± 0.063; for `Cc1ccccc1-c1cnc2c(c1)C(=O)N([C@@H](C)CO)C[C@H](C)[C@@H](CN(C)Cc1ccccc1F)O2`: 1 ± 0.013.
For `CN1[C@H](C(=O)NCc2ccccn2)[C@@H](CO)[C@@H]2Cn3c(ccc(-c4ccc(F)cc4)c3=O)[C@@H]21`, the viability index was 1.01 ± 0.043.
As to `COCC(=O)N1CC[C@H]2[C@H](CO)Nc3ccc(-c4ccc(C(=O)N(C)C)cc4)cc3[C@H]21`, the viability index stood at 1.09 ± 0.071.
The figure for `COC(=O)C[C@H]1C[C@@H]2c3cc(N)ccc3O[C@@H]2[C@H](CO)O1` is 1.1 ± 0.031; for `O=C(C[C@H]1CC[C@@H]2[C@H](COC[C@@H](O)CN2C(=O)Nc2ccccc2)O1)NCc1ccccc1F` it is 1.03 ± 0.084; for `N#C[C@@H]1[C@@H](c2ccccc2C2=CCCCC2)[C@H](CO)N1S(=O)(=O)c1ccccc1` it is 1.05 ± 0.1.
The same measure for `Cc1noc(C)c1NC(=O)N(C)C[C@@H]1OCc2cnnn2CCCC(=O)N([C@H](C)CO)C[C@@H]1C`: 1.09 ± 0.08; for `N#Cc1cccc(-c2ccc([C@@H]3[C@H]4CNC[C@@H]3N4C(=O)Nc3cccc(F)c3)cc2)c1`: 0.986 ± 0.035.
The same measure for `COc1ccc2c3c([C@@H](CO)NC[C@]33CCN(CC3)C(=O)Nc3ccc4OCOc4c3)n(C)c2c1`: 1.01 ± 0.0042; for `O=C(C[C@@H]1C[C@H]2c3cc(NC(=O)C4CCC4)ccc3O[C@H]2[C@H](CO)O1)NC1CCCC1`: 1.08 ± 0.03.
Compound `CC(=O)NC[C@H]1[C@@H](c2ccc(C#Cc3ccccc3F)cc2)[C@@H](CO)N1C(C)=O` came in with a viability index of 1.05 ± 0.002.
`Cc1noc(C)c1S(=O)(=O)N(C)C[C@H]1OCCCC[C@@H](C)Oc2ccc(NS(=O)(=O)c3cn(C)cn3)cc2C(=O)N([C@@H](C)CO)C[C@@H]1C` displayed a viability index of 1.1498 ± 0.0011.
On to `C[C@H]1CN([C@@H](C)CO)C(=O)c2cccc(NC(=O)c3cnccn3)c2O[C@@H]1CN(C)C(=O)NC1CCCCC1`, for which the viability index worked out at 0.973 ± 0.096.
The figure for `COc1cccc(C(=O)Nc2ccc3c(c2)OC[C@H](C)N(CCc2ccccc2)C[C@H](C)[C@@H](OC)CN(C)C3=O)c1` is 1.06 ± 0.031; for `C[C@H]1CN([C@@H](C)CO)C(=O)c2ccccc2-c2ccccc2CO[C@H]1CN(C)S(=O)(=O)c1cn(C)cn1` it is 1.01 ± 0.12; for `CO[C@H]1CN(C)C(=O)c2cc(NC(=O)c3cnccn3)ccc2OC[C@H](C)NC[C@@H]1C` it is 1.04 ± 0.053.
The figure for `N#C[C@@H]1[C@@H](c2ccccc2C2=CCCC2)[C@H](CO)N1C(=O)C1CCOCC1` is 1.01 ± 0.015.
The figure for `CO[C@@H]1CN(C)C(=O)c2cc(NC(=O)c3nc4ccccc4s3)ccc2OC[C@H](C)NC[C@H]1C` is 1.05 ± 0.059.
Consider `COc1ccc(CNC(=O)c2cc3c(c(-c4cccc(-c5ccc(C#N)cc5)c4)n2)[C@@H](CCO)N([S@](=O)C(C)(C)C)C3)cc1`, for which the viability index was determined as 1.02 ± 0.065.
The figure for `CO[C@@H]1CC[C@H]2CCOc3c(C#N)cccc3C(=O)N(C)C[C@@H](c3ccccc3)CC(=O)N(C)C[C@@H]1O2` is 1.01 ± 0.049; for `COc1ccc(-c2cn(CC[C@H]3CC[C@@H](NC(=O)c4cnccn4)[C@@H](CO)O3)nn2)cc1` it is 1.21 ± 0.081; for `O=S(=O)(Cc1ccccc1)N1CC2(C1)[C@H](c1ccccc1)[C@H](CO)N2CC1CCCC1` it is 1.1139 ± 0.00092.
The figure for `C[C@H](CO)N1C[C@H](C)[C@@H](CN(C)S(=O)(=O)c2ccc3c(c2)OCCCO3)OCc2cnnn2CCCC1=O` is 1.003 ± 0.0081.
The same measure for `CS(=O)(=O)N1[C@@H](C#N)[C@@H](c2ccc(C#Cc3cccc(F)c3)cc2)[C@@H]1CO`: 1 ± 0.087.
Regarding `Cc1noc(C)c1C(=O)N(C)C[C@H]1OCc2ccccc2-c2ccccc2C(=O)N([C@H](C)CO)C[C@H]1C`, the viability index turned out to be 0.988 ± 0.047.
As to `CCC(=O)N[C@H]1CC[C@@H](CC(=O)NCc2ccccc2F)O[C@@H]1CO`, the viability index came out at 1.12 ± 0.067.
The figure for `C[C@H]1CN([C@@H](C)CO)C(=O)Cc2cc(NC(=O)CCN3CCOCC3)ccc2O[C@H]1CN(C)Cc1ccc(C(=O)O)cc1` is 1.01 ± 0.043; for `O=C(C[C@@H]1C=C[C@@H](NC(=O)Cc2ccccn2)[C@H](CO)O1)NCCc1ccncc1` it is 0.908 ± 0.09; for `CCC(=O)N1CC2(C1)[C@H](c1ccccc1)[C@@H](CO)N2CC1CC1` it is 1.05 ± 0.078.
For the compound `COc1ccc2c3c([C@@H](CO)NC[C@]33CN(C3)C(=O)CC3CC3)n(C)c2c1`, the viability index was determined as 1.04 ± 0.081.
The figure for `O=C(C1CCCCC1)N1[C@@H]2CNc3ccccc3[C@@H]2[C@@H]1CO` is 1.03 ± 0.15; for `CO[C@@H]1CN(C)C(=O)c2ccc(NS(=O)(=O)c3c(C)noc3C)cc2OC[C@H](C)NC[C@H]1C` it is 1.1 ± 0.048.
The figure for `O=C1CNC[C@@H]2[C@@H](c3ccc(C#Cc4cccnc4)cc3)[C@@H](CO)N12` is 1.05 ± 0.021; for `CCCC(=O)N1CC[C@@]2(CC1)CN([C@H](CO)c1[nH]c3cc(OC)ccc3c21)C(=O)C1CCC1` it is 1.05 ± 0.084; for `CO[C@@H](CN(C)S(=O)(=O)c1ccc(C)cc1)[C@@H](C)CN([C@@H](C)CO)S(=O)(=O)c1cccc(Cl)c1` it is 1.04 ± 0.026.
Turning to `C[C@@H]1CCCCO[C@H](CN(C)Cc2ccc(Cl)c(Cl)c2)[C@@H](C)CN([C@H](C)CO)C(=O)c2cc(NC(=O)c3ccncc3)ccc2O1`, the viability index was 1.05 ± 0.047.
The figure for `O=C(Nc1ccc2c(c1)[C@H]1C[C@@H](CC(=O)N3CCOCC3)O[C@H](CO)[C@H]1O2)Nc1ccccc1F` is 1.11 ± 0.032.
Take `CCC(=O)N1[C@@H](CO)[C@@H](c2ccccc2)C12CN(C(=O)c1ccncc1)C2`: the viability index worked out at 1.01 ± 0.071.
The same measure for `C[C@@H]1CN([C@@H](C)CO)C(=O)c2cccc(NS(=O)(=O)c3ccc(F)cc3)c2O[C@@H]1CN(C)Cc1ccc(Cl)c(Cl)c1`: 1.01 ± 0.14.
